# Counter-ions that a name gives are not always drawn. ± gives the standard deviation of the averaged measurements. The whole screen tested about 1,000 compounds, of which about 15 (2%) showed an effect of 50% or more. Some of the results follow.
# Tested on: HFF
# Assay: uninfected host cell viability relative to vehicle control; higher = less host cell toxicity
# Settings: 5 µM; 72 h; oxygen 21 %
# 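Further: confluent HFF monolayers, run in parallel with the Toxoplasma growth screen as a host toxicity counterscreen.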
row,SMILES,uninfected host cell viability [%]
1,CC[N+](CC)(CC)CC(=O)Nc1c(C)cccc1C [QX 314 bromide],95.6 ± 3
2,CC[N+](CC)(CC)CC(=O)Nc1c(C)cccc1C [QX 314 chloride],87.3 ± 3
3,c1ccc(COCCCc2c[nH]cn2)cc1 [Proxyfan Oxalate],97.3 ± 1.1
4,O=C(NCCN1CCCCC1)c1ccc(I)cc1 [N-[2-(Piperidinylamino)ethyl]-4-iodobenzamide],83.6 ± 0.99
5,CC1=C(/C=C/C(=C/C=C/C(C)=C/C(=O)O)c2ccc(C)cc2)C(C)(C)CCC1,111 ± 1.8
6,COC(=O)Nc1ccc2[nH]cc(CCNC(C)=O)c2c1,94.6 ± 3.5
7,Cc1cc(C)c(S(=O)(=O)Nc2cccc(C(F)(F)F)c2)c(C)c1,82.4 ± 6.6
8,N#C/C(=C\c1ccc(O)c(O)c1)C(=O)NCc1ccccc1,82.5 ± 2
9,c1nc(CC2CCNCC2)c[nH]1 [Immepip dihydrobromide],81.5 ± 3.3
10,O=C(O)C1=CCCN(CCON=C(c2ccccc2)c2ccccc2)C1,89.4 ± 4.1
11,Nc1ncnc2n[nH]c(Nc3ccc(F)cc3)c12,80.93 ± 0.35
12,c1ccc(CN(CC2=NCCN2)c2ccccc2)cc1 [Antazoline hydrochloride],91 ± 1.8
13,NC(=O)c1cccc(N)c1 [3-Aminobenzamide],87.67 ± 0.84
14,CN(CC[C@@H](Oc1ccc(-c2ccccc2)cc1)c1ccc(F)cc1)CC(=O)O [ALX 5407 hydrochloride],89.7 ± 7.4
15,CCN(CC)CCCC(C)Nc1nc(C)cc(Nc2ccc3nc(C)cc(N)c3c2)n1 (configuration not stated),80.4 ± 1.2
16,CNC(=O)[C@H]1O[C@@H](n2cnc3c(NCc4cccc(I)c4)nc(Cl)nc32)[C@H](O)[C@@H]1O,82.65 ± 0.48
17,O=[N+]([O-])c1cccc2c[nH]nc12,85.36 ± 0.14
18,Clc1cccc2c1CN(C1=NCCN1)C2,91.5 ± 9.4
19,O=C(/C=C/c1c(C(=O)O)[nH]c2cc(Cl)cc(Cl)c12)Nc1ccccc1 [Gavestinel],85.3 ± 1.3
20,Cn1ccc2cc3c(cc21)CCN3C(=O)Nc1cccnc1,78.06 ± 0.67
21,COc1ccc(CCN(C)CCCOc2ccc(S(=O)(=O)c3c(C(C)C)c4ccccc4n3C)cc2)cc1OC,86.8 ± 0.95
22,CCCCCCN(CCCCCC)C(=O)Cc1c(-c2ccc(Cl)cc2)[nH]c2ccc(Cl)cc12,97.7 ± 1.1
23,O=C1C(SCCO)=C(SCCO)C(=O)c2ccccc21,70 ± 0.99

row,SMILES,uninfected host cell viability [%]
1,CCOC(=O)[C@H](CCc1ccccc1)N[C@@H](C)C(=O)N1Cc2cc(OC)c(OC)cc2C[C@H]1C(=O)O [Moexipril hydrochloride],97.91 ± 0.78
2,FC(F)(F)c1cccc(-c2noc(-c3cc(-c4ccccc4)c(C(F)(F)F)s3)n2)c1,90.4 ± 2.4
3,CCN(CC)CCCCN1c2ccccc2Oc2ccc(Cl)cc21 [10-DEBC hydrochloride],80.7 ± 3.3
4,Cc1cccc(C(=O)NCN2CCN(c3ccccc3C#N)CC2)c1,88.3 ± 1.4
5,Fc1ccc([C@@H]2CCNC[C@H]2COc2ccc3c(c2)OCO3)cc1 [Paroxetine maleate],78.9 ± 3.3
6,COc1cc(OC)c(C(=O)CCCCN2CCC3(CC2)NC(=O)NC3=O)cc1NS(=O)(=O)c1ccc(C(F)(F)F)cc1,90 ± 3.1
7,COC(=O)C1=C(C)NC(C)=C(C(=O)OC(C)C)C1c1cccc2nonc12 (configuration not stated) [Isradipine],104 ± 7.9
8,O=C1OC(OC(=O)c2cccnc2Nc2cccc(C(F)(F)F)c2)c2ccccc21 (configuration not stated) [Talniflumate],95.7 ± 11
9,CCC(=O)NC1CCc2cccc(OC)c2C1 (configuration not stated),92.8 ± 1.7
10,N[C@@H](Cc1cc(-c2ccc(Cl)cc2Cl)cc(CP(=O)(O)O)c1O)C(=O)O,89.1 ± 2.9
11,NCCCCCCCCCCNS(=O)(=O)c1cccc2c(Cl)cccc12 [A-7 hydrochloride],88.1 ± 2.6
12,C/C(=N\NC(=O)C1C(=O)NCC1c1ccccc1)c1cccc(Br)c1 (configuration not stated),88.1 ± 1.7
13,CN(C)CCCn1cc(C2=C(c3c[nH]c4ccccc34)C(=O)NC2=O)c2ccccc21,62.3 ± 1.5
14,COc1ccccc1N1CCN(CCCNc2cc(=O)n(C)c(=O)n2C)CC1 [Urapidil hydrochloride],89.4 ± 4.4
15,CN/C(=N\c1ccc(C2=NNC(=O)CC2C)cc1)NC#N (configuration not stated) [Siguazodan],85.4 ± 1.3
16,COCC(=O)O[C@]1(CCN(C)CCCc2nc3ccccc3[nH]2)CCc2cc(F)ccc2[C@@H]1C(C)C [Mibefradil dihydrochloride],79.7 ± 4.6
17,Oc1cc2c(c(Cl)c1O)CCNCC2c1ccccc1 (configuration not stated),87.931 ± 0.028
18,COc1ccc2[nH]c(C(=O)c3ccccc3)cc2c1,80.23 ± 0.49
19,CC(C)(CO)Cc1cc(C(C)(C)C)c(O)c(C(C)(C)C)c1,94.27 ± 0.8
20,CCc1cc2c(c(CC)n1)CCC(=O)N2Cc1ccc(-c2ccccc2-c2nn[nH]n2)cc1 [ZD 7155 hydrochloride],94.11 ± 0.49
21,O=[N+]([O-])c1cc2nc(O)c(O)nc2cc1[N+](=O)[O-],98.5 ± 2
22,CN(CCOc1ccc(C[C@H](Nc2ccccc2C(=O)c2ccccc2)C(=O)O)cc1)c1ccccn1,109 ± 9
23,O=C(Nc1cccc2cccnc12)c1ccc(N2C(=O)[C@@H]3[C@H](C2=O)[C@@H]2C=C[C@H]3C2)cc1 [endo-IWR 1],69.36 ± 0.36

row,SMILES,uninfected host cell viability [%]
1,O=C1CCC(N2C(=O)c3ccccc3C2=O)C(=O)N1 (configuration not stated) [Thalidomide],87.1 ± 5
2,CCCCCCCCCCCC1=C(O)C(=O)C=C(O)C1=O [Embelin],83.69 ± 0.49
3,Nc1nc2c(ccc3ccccc32)s1,77.6 ± 1.3
4,CCCCCCCCCCCCCCCC(=O)C(F)(F)F,91.66 ± 0.55
5,Cc1ccc(/C=C2\CNC/C(=C\c3ccc(C)cc3)C2=O)cc1,34.4 ± 5.5
6,CC(=O)N1CCN(C)CC1 [1-Acetyl-4-methylpiperazine hydrochloride],89.9 ± 1.1
7,CC1(C)CCC(C)(C)c2cc(C(=O)Nc3ccc(C(=O)O)cc3)ccc21,81.8 ± 2.3
8,Cc1ccc2c(=O)c3ccccc3n(CCCN)c2c1C,55.7 ± 6.6
9,c1cc2c3c(c1)c1c(n3CCNC2)CCCC1 [WAY 629 hydrochloride],89.6 ± 5.6
10,O=C(Cc1ccccc1)Nc1nc2ccc(Cl)cc2c2nc(-c3ccco3)nn12,99.47 ± 0.4
11,CC(C)NC[C@H](O)COc1cccc2[nH]ccc12 [(S)-(-)-Pindolol],81.7 ± 2.5
12,CCc1cc(-c2n[nH]c(C)c2-c2ccc3c(c2)OCCO3)c(O)cc1O,79 ± 0.26
13,COc1ccc(NC(=O)c2ccc(-c3ccc(-c4noc(C)n4)cc3C)cc2)cc1N1CCN(C)CC1,70.2 ± 7.3
14,COc1ccc(CC(=O)NC(/N=C(\NC#N)Nc2cccc3ncccc23)C(C)(C)C)cc1OC (configuration not stated),85.9 ± 2.2
15,O=C(O)C1(C(=O)O)CCC1.[NH2-].[NH2-].[Pt+2] [Carboplatin],89.5 ± 2.8
16,O=C(Nc1ccc([N+](=O)[O-])cc1O)Nc1ccccc1Br,72.84 ± 0.22
17,O=c1c(O)c(-c2ccc(O)c(O)c2)oc2cc(O)cc(O)c12 [Quercetin],88.7 ± 2.6
18,COc1ccc2cccc(N3CCN(CCNC(=O)c4ccc(F)cc4)CC3)c2c1,82.7 ± 4
19,CN(C(=O)c1c(O)c2ccccc2n(C)c1=O)c1ccccc1 [Linomide],90.1 ± 1.9
20,CCN1CCC[C@H]1CNC(=O)c1c(O)c(Cl)cc(Cl)c1OC [Raclopride],86.3 ± 4.8
21,O=C(O)c1cccnc1C(=O)O [Quinolinic acid],90.8 ± 6.9
22,CCCCC[C@H](O)/C=C/[C@H]1[C@H](O)CC(=O)[C@@H]1CCCCCCC(=O)O [Alprostadil],91.7 ± 4.5
23,COc1cc2ncnc(Nc3ccc(F)c(Cl)c3)c2cc1OCCCN1CCOCC1 [Iressa],74 ± 2.6

row,SMILES,uninfected host cell viability [%]
1,[O-][S+](c1ccccc1)c1ccc2nnnn2n1 (configuration not stated),97.9 ± 8
2,CN1CCC[C@@H]1CCO[C@](C)(c1ccccc1)c1ccc(Cl)cc1 [Clemastine fumarate],94.8 ± 1.1
3,c1ccc2oc(C3=NCCN3)cc2c1 [2-BFI hydrochloride],84.5 ± 0.93
4,CC/C(=C(\c1ccccc1)c1ccc(OCCN(C)C)cc1)c1ccccc1 [Tamoxifen citrate],95.385 ± 0.09
5,c1ccc(-c2n[nH]c3c2oc2ccccc23)cc1,76.7 ± 0.88
6,Cc1ccccc1N=Nc1ccc(NC(=O)c2ccnn2C)c(C)c1,85.4 ± 2
7,O=c1[nH]nc(Sc2ncc([N+](=O)[O-])s2)n1-c1ccc2c(c1)OCCO2,99.61 ± 0.28
8,c1ccc2nc(C3=NCCN3)cnc2c1 [BU 239 hydrochloride],90.45 ± 0.87
9,CCC(=O)NC[C@H](Cc1ccc(OCCc2nc(-c3ccccc3)oc2C)cc1)N/C(C)=C\C(=O)c1ccc(C(F)(F)F)cc1,102 ± 1.4
10,Brc1c(NC2=NCCN2)ccc2nccnc12,87.1 ± 2.9
11,"Brc1c(NC2=NCCN2)ccc2nccnc12 [UK 14,304 tartrate]",95.97 ± 0.2
12,N=C(N)N/N=C/c1c(Cl)cccc1Cl [Guanabenz acetate],86.3 ± 7
13,N[C@H](C(=O)O)[C@H](OCc1ccccc1)C(=O)O (racemic),98.4 ± 2.4
14,OC[C@H]1NC[C@@H](O)[C@@H](O)[C@@H]1O [1-Deoxymannojirimycin hydrochloride],86.61 ± 0.073
15,O=C(O)c1cc(O)c2ccc(Cl)cc2n1 [7-Chlorokynurenic acid],86.7 ± 1.1
16,O=C(O)CCC/C=C\C[C@@H]1CO[C@H](C(F)(F)F)O[C@@H]1c1ccccc1O,93.4 ± 4.4
17,Cc1ccc2c(c1)C(=O)C1(O)CCN(c3ccccc3)C1=N2 (racemic) [(±)-Blebbistatin],90.9 ± 7.7
18,O=C1c2ccccc2S(=O)(=O)N1CCCCN1CCN(c2ncccn2)CC1 [Ipsapirone],87.04 ± 0.35
19,CC1=C(CC(=O)O)c2cc(F)ccc2/C1=C\c1ccc([S+](C)[O-])cc1 (configuration not stated) [Sulindac],85.4 ± 5
20,Cc1noc(NS(=O)(=O)c2ccc(N)cc2)c1C [Sulfisoxazole],85.6 ± 1
21,O=C1CC2(CCCC2)CC(=O)N1CCNCC1COc2ccccc2O1 (configuration not stated),85.64 ± 0.64
22,Cc1ccc(NC2=CC(=O)c3sc(C)nc3C2=O)cc1 [Ryuvidine],16.8 ± 0.66
23,COc1ccc2[nH]c([S+]([O-])Cc3ncc(C)c(OC)c3C)nc2c1 (configuration not stated) [Omeprazole],85.1 ± 2.2

# Reference: the supplement of paper PMC4894684
